No constants are given. Whether binding was seen depends on the method and setting. Some entries that bind do so weakly or less than the wild type. Where a sequence is shown, tags or fusion partners need not be part of it.

Chains of the proteins cited; added tags and fusions are not shown.
UniProt P41916: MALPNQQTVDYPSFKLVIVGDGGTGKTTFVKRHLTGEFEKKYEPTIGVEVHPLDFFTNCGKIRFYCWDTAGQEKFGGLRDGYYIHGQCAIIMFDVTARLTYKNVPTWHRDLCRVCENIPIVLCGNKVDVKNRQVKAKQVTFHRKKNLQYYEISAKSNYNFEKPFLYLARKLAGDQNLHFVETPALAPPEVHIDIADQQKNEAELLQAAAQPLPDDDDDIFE

First the molecules themselves.
T1: MOS14 C-terminus (amino acid 282-958), bait fusion (Arabidopsis) (UniProt Q8GUL2)
T1 sequence: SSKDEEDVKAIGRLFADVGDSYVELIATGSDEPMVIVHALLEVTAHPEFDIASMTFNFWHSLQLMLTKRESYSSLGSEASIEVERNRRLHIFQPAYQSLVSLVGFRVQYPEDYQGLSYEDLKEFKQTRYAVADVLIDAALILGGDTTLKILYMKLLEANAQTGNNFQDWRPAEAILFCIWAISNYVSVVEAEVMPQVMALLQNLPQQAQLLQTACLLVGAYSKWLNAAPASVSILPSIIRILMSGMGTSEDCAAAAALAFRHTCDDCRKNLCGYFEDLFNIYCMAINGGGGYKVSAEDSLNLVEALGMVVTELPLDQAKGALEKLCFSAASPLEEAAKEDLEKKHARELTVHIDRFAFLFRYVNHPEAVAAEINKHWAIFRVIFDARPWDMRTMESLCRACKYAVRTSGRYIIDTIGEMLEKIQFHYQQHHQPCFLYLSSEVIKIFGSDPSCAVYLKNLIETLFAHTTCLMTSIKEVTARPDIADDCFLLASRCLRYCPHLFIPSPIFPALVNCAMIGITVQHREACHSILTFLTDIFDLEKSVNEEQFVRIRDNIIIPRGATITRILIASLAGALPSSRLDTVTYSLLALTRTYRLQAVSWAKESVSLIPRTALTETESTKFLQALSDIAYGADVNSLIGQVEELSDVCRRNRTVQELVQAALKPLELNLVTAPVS

T2: MOS14 N-terminus (amino acid 1-281), bait fusion (Arabidopsis) (UniProt Q8GUL2)
T2 sequence: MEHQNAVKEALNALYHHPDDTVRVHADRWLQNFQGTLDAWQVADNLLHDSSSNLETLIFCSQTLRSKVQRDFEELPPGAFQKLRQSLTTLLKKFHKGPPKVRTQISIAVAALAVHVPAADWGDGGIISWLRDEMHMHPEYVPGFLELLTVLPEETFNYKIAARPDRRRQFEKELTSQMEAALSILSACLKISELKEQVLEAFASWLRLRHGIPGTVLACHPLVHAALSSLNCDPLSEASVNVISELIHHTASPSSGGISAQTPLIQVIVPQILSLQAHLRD

B1: MOS14 N-terminus (amino acid 1-281), prey fusion (domain or fragment, UniProt Q8GUL2 1-281)
chain: T2 sequence
B2: MOS14 C-terminus (amino acid 282-958), prey fusion (domain or fragment, UniProt Q8GUL2 282-958)
chain: T1 sequence
B3: AtRSZ21 (protein, UniProt O81127 1-187)
chain: MTRVYVGNLDPRVTERELEDEFKAFGVLRNVWVARRPPGYAFLEFDDERDALDAISALDRKNGWRVELSHKDKGGRGGGGGRRGGIEDSKCYECGELGHFARECRRGRGSVRRRSPSPRRRRSPDYGYARRSISPRGRRSPPRRRSVTPPRRGRSYSRSPPYRGSRRDSPRRRDSPYGRRSPYANGV
B4: AtRS2Z33 (protein, UniProt Q8VYA5 1-290)
chain: MPRYDDRYGNTRLYVGRLSSRTRTRDLERLFSRYGRVRDVDMKRDYAFVEFGDPRDADDARHYLDGRDFDGSRITVEFSRGAPRGSRDFDSRGPPPGAGRCFNCGVDGHWARDCTAGDWKNKCYRCGERGHIERNCKNSPKKLRRSGSYSRSPVRSRSPRRRRSPSRSLSRSRSYSRSRSPVRRRERSVEERSRSPKRMDDSLSPRARDRSPVLDDEGSPKIIDGSPPPSPKLQKEVGSDRDGGSPQDNGRNSVVSPVVGAGGDSSKEDRSPVDDDYEPNRTSPRGSESP
B5: AtRS31 (protein, UniProt P92964 1-264)
chain: MRPVFVGNFEYETRQSDLERLFDKYGRVDRVDMKSGYAFVYFEDERDAEDAIRKLDNFPFGYEKRRLSVEWAKGERGRPRGDAKAPSNLKPTKTLFVINFDPIRTKEHDIEKHFEPYGKVTNVRIRRNFSFVQFETQEDATKALEATQRSKILDRVVSVEYALKDDDERDDRNGGRSPRRSLSPVYRRRPSPDYGRRPSPGQGRRPSPDYGRARSPEYDRYKGPAAYERRRSPDYGRRSSDYGRQRSPGYDRYRSRSPVPRGRP
B6: AtSR34 (protein, UniProt O22315 1-303)
chain: MSSRSSRTVYVGNLPGDIREREVEDLFSKYGPVVQIDLKVPPRPPGYAFVEFDDARDAEDAIHGRDGYDFDGHRLRVELAHGGRRSSDDTRGSFNGGGRGGGRGRGDGGSRGPSRRSEFRVLVTGLPSSASWQDLKDHMRKGGDVCFSQVYRDARGTTGVVDYTCYEDMKYALKKLDDTEFRNAFSNGYVRVREYDSRKDSRSPSRGRSYSKSRSRSRGRSVSRSRSRSRSRSRSPKAKSSRRSPAKSTSRSPGPRSKSRSPSPRRSRSRSRSPLPSVQKEGSKSPSKPSPAKSPIHTRSPSR

In the first assay the target is AtRAN1 (Arabidopsis (from the name AtRAN1)) (UniProt P41916). Kind of assay: two-hybrid; AtRAN1 in pGBKT7a, MOS14 fragments in pGADT7a; yeast strain PJ694α; synthetic dropout medium with 3 mM 3-AT.
Consider B1, for which the binding result was “binds”.

Take B2: the binding entry is “no binding”.

The next assay addresses T1, MOS14 C-terminus (amino acid 282-958), bait fusion (Arabidopsis). Briefly: two-hybrid; MOS14 fragments in the bait vector (pGBKT7a), SR proteins in the prey vector (pGADT7a); yeast strain PJ694α; growth on synthetic dropout medium.
For the molecule B3, the binding entry was “binds”. The same measure, in the same setting: as for B4, the entry is “binds”; as for B5, “binds”. Still for that read-out and setting: as for B6, the entry is “binds”.

In the next assay the target is T2, MOS14 N-terminus (amino acid 1-281), bait fusion (Arabidopsis). Described as above.
Regarding B3, the binding result was “no binding”.

For B4, the binding entry is “no binding”. Turning to B5, the binding result was “no binding”. As for B6, the binding result is “no binding”.

The record behind these values is publication PMC3128105.
